Among all 44,000 compounds or so, about 340 (0.77%) were called active. Another 5% or so got no clear call; they are omitted. Calls follow the shape of the dose curve; as a rule, active = well fitted inhibition curve with a large enough effect; inconclusive = small, poorly fitted or top-dose-only effect; inactive = flat fitted curve, though single readings scatter. The list shows a part of the results.
Assay: Acumen qHTS Assay for Inhibitors of the mTORC1 Signaling Pathway in MEF (Tsc2-/-, p53-/-) Cells: Sytravon;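 also: plate controls were DMSO for no effect and rapamycin for full effect; nearly all actives have a fitted effect of over 50% in size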
Settings: phospho-rpS6 immunofluorescence/PI, 24 h; series mostly up to 38.3 µM; activity change, negative = inhibition: at the top concentration
Method in brief: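 Tsc2-/-, p53-/- mouse embryonic fibroblasts (empty-vector line) exposed to compound 24 hrs at 37 C, fixed, immunostained for phospho-rpS6 and counterstained with propidium iodide. Acumen laser scanning gives % positive cells from Alexa 488/PI ratio, thresholded using 7.5 nM rapamycin; PI count gives viability.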

Activity change, negative = inhibition, inactive:
O=C(Nc1ccc2nc(SCC(=O)N3CCCc4ccccc43)sc2c1)c1ccccc1F -14.8%, CCc1ccc(C2=C(C)C(N3CCC(C(=O)Nc4ccc(F)cc4)CC3)=NS2(=O)=O)cc1 -25.6%, O=C(Nc1cccc(C(=O)N2CCN(c3ccccc3)CC2)c1)c1nsc2ccccc12 2.38%, CCCCNC(=O)CCCn1c(=O)c2ccccc2n(Cc2ccc(Cl)cc2)c1=O 3.95%, COc1ccc(C2CC(=O)c3cnc4c(-c5ccccc5)c(C)nn4c3C2)c(OC)c1 (stereo not given) 3.99%, COc1ccc2c(c1)c1c(c(=O)n(-c3ccc(OC)c(OC)c3)c(=O)n1Cc1ccc(C)cc1)n2C 0.443%, Cc1cc2c(cc1C)-n1c(-c3ccccc3)c3c(=O)n(C)c(=O)n(C)c3c1C(c1ccco1)N2 (stereo not given) -19.4%, CC(C)(C)OC(=O)N1CCC(c2c(C(=O)N3CCOCC3)cnn2-c2ccccc2Cl)CC1 -17.4%, CCc1c(C)nc2nncn2c1Nc1cccc(C)c1 1.04%, COc1ccc(-c2nc(SCC(=O)Nc3cccc(C(C)=O)c3)n[nH]2)cc1 -5.13%, Fc1ccc(-c2noc3ncnc(N4CCCCC4)c23)cc1 -8.36%, O=C(Cc1ccccc1)Nc1cc(-c2nc3cc(Cl)ccc3o2)ccc1Cl -4.16%, COc1ccc(Cc2nc3ccc(C(=O)NCc4cc(Br)ccc4OC)cc3o2)cc1 0.436%, CCOC(=O)c1c(NC(=O)CS(=O)(=O)c2ccc(Cl)cc2)sc2c1CCCC2 0.915%, COc1ccc(CCC(=O)NCc2nc3cccnc3n2Cc2ccc(OC)cc2)cc1 -1.73%, CNC(=O)C1CCN(C(=O)N2CC(C)Oc3ccc(C)cc32)CC1 (stereo not given) 3.23%, CCOC(=O)c1c(NC(=O)c2cc(=O)c3c(C)cc(C)cc3o2)sc2c1CCC2 6.49%, COc1ccc(-c2cc(C(=O)OCC(=O)c3cccc(OC)c3)c3cccc(Cl)c3n2)cc1 -9%, COc1ccccc1N(C)C(=O)Cn1c(=O)oc2cc(S(=O)(=O)N3CCCC3)ccc21 -7.17%, Cc1ccccc1CNC(=O)C1CCCN(c2nnc(-n3c(C)ccc3C)s2)C1 (stereo not given) -9.56%, Cn1c(=O)c2c(ncn2CC(=O)Nc2cc(Cl)cc(Cl)c2)n(C)c1=O -18.3%, Clc1ccc(CCNC(c2cccc(Cl)c2)c2nnc(-c3ccccc3)o2)cc1 (stereo not given) -10.9%, Cn1cc(S(=O)(=O)N2CCCCCC2)cc1C(=O)N1CCN(c2ccc(Cl)cc2)CC1 -1.9%, CCOC(=O)c1cc(-c2ccccc2)n(CCCC(=O)Nc2ccc(C)c(C)c2)c1C -16.4%, Cc1nn(C)c2c1c(C(F)(F)F)cc(=O)n2C(C)C(=O)N1CCN(c2ccccc2)CC1 (stereo not given) -16.3%, CC1=C(C(=O)Nc2ccccc2)C(c2ccccc2Cl)n2ncc(C(=O)Nc3cccc(C)c3)c2N1 (stereo not given) -3.15%, CCOC(=O)c1c(C)[nH]c(C)c1S(=O)(=O)N1CCN(c2ccccc2OC)CC1 -5.56%, O=C(O)CCc1ccc(-c2ccccc2)n1-c1cccc(Br)c1 -11%, COc1cc(/C=C/c2nc(C#N)c(NC(C)c3ccccc3)o2)cc(OC)c1OC (stereo not given) -18.5%, CN(Cc1ccccc1)C(=O)c1cc2c(s1)-c1ccc(Cl)cc1SC2 -1.59%, CCOc1ccc(CNC(=O)Cn2c(=O)c3cccn3c3ccc(F)cc32)cc1OC 2.99%, Cc1ccc(CNC(=O)Cn2c(=O)n(-c3ccccc3)c(=O)c3c2c2cc(C)ccc2n3C)cc1 2.69%, Cc1ccc(NC(=O)CCSc2nc(-c3ccc4c(c3)OCO4)cc(C(F)(F)F)n2)cc1 -17.6%, CCCCN(C)CCNC(=O)Cn1ncc2c([nH]c3ccccc32)c1=O -4.76%, CCOC(=O)CCN(c1ccccc1)S(=O)(=O)c1ccc2[nH]c(=O)ccc2c1 0.508%, CCc1ccc(Oc2nc3c(C)cccn3c(=O)c2/C=C(\C#N)c2nc3ccccc3s2)cc1 1.98%, O=C(c1ccc(Cl)cc1)n1nc(-c2ccco2)nc1NCc1cccs1 0.0071%, COc1ccc(CCCc2nnc(SCC(=O)Nc3ccccc3F)o2)cc1C -1.63%, CCOCCCNC(=O)CN1C(=O)c2c(c3ccccc3n2C)C1c1ccc(OC)cc1 (stereo not given) -3.87%, COc1cccc(N(Cc2nnc3n2CCCCC3)C(=O)Nc2cccc(Cl)c2)c1 6.35%, O=C(Cc1csc2nc(-c3ccccc3)cn12)NCc1ccc(F)cc1 0%, CCOc1ccccc1NC(=O)N1CCCn2nc(C)cc21 4.6%, O=C(NCC(c1cccs1)S(=O)(=O)c1cccs1)c1ccc(C(F)(F)F)cc1 (stereo not given) -0.804%, CCOC(=O)c1c(S(=O)(=O)N2CCCC(C(=O)Nc3ncccc3C)C2)c(C)n(C)c1C (stereo not given) -3.02%, O=C(OCc1ccccc1Cl)c1ccc(-c2nnn(Cc3ccccc3Cl)n2)cc1 2.74%, Cc1ccc(NC(=O)CCc2c(C)nn(-c3ccc(N4CCOCC4)nn3)c2C)cc1F 5.01%, COc1ccc(N(C(=O)COc2ccc(Br)cc2)S(=O)(=O)c2ccc(C)cc2)cc1 -6.32%, COc1ccc(Cn2ccc3nc(C)c(C(=O)Nc4ccc(OC)cc4OC)cc3c2=O)cc1 -3.88%, O=C1Nc2cc(Cl)ccc2Oc2cc(Oc3ccccc3)ccc21 -27%, Cc1ccc(C)c(CN2C(=O)c3ccccc3S(=O)c3ccc(C(=O)NCc4ccco4)cc32)c1 (stereo not given) 0.456%, Cc1cc(C)c(S(=O)(=O)Nc2cccc(-c3cn4ccccc4n3)c2)c(C)c1 -7.33%, Cc1ccc(NC(=O)Cn2cc(S(=O)(=O)NC(C)C)c(S(=O)(=O)NC(C)C)c2)cc1Cl -21.2%, COc1ccc(Oc2nc3c(c(=O)n(Cc4ccccc4Cl)c(=O)n3C)n2C)cc1 -5.64%, COC(=O)c1c(SCC(=O)Nc2ccccc2OC)[nH]c2ccccc2c1=O 6.45%, Cc1cc2ccccc2n1-c1ccc(C(=O)N2CCC(C(=O)NCc3ccc(F)cc3)CC2)s1 -6.5%, O=C(C1CC1)N1CCc2cc(Br)cc(S(=O)(=O)N3CCN(c4ccccc4F)CC3)c21 4.65%, COc1ccc(CNC(=O)Cn2ccc3cc(S(=O)(=O)N4CCCCCC4)ccc32)c(OC)c1 0%, Cc1ccc(N2CC(NC(=O)/C=C\c3ccc4c(c3)OCO4)CC2=O)cc1 (stereo not given) -0.46%, O=C(/C=C/c1ccco1)Nc1ccc(Cl)c(-c2nc3cc(Cl)ccc3o2)c1 -5.36%, Cc1ccc(NC(=O)C2CCN(c3nn4c(=O)cc(C)nc4s3)CC2)cc1 3.93%
